# According to the supplement of paper PMC8728848:
# The other results are listed elsewhere or left out.
# Legend:
# Assay in all cases: glycan array binding signal (z-score within array); higher = stronger binding
# Settings in all cases: glycan notation: IUPAC condensed, linker removed
# [1] = target: Neu5Ac(a2-3)Gal(b1-4)GlcNAc(b1-3)[Neu5Ac(a2-3)Gal(b1-4)GlcNAc(b1-6)]GalNAc
# Procedure, shortened: (§1)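 Columns mapping to the same glycan were averaged after glycan names were converted to IUPAC-condensed notation. The data come from 3228 arrays in the Consortium for Functional Glycomics database, limited to those with an available protein sequence. Binding is reported as a within-array Z-score averaged across arrays of one protein sequence and across linkers.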
# [2] = target: Neu5Ac(a2-3)Gal(b1-4)GlcNAc(b1-6)GalNAc
# Procedure, shortened: as §1
# [3] = target: Neu5Ac(a2-3)Gal(b1-4)GlcNAc(b1-6)[Gal(b1-3)]GalNAc
# Procedure, shortened: as §1
# [4] = target: Neu5Ac(a2-3)Gal(b1-4)GlcNAc(b1-6)[Neu5Ac(a2-3)Gal(b1-3)]GalNAc
# Procedure, shortened: as §1
# [5] = target: Neu5Ac(a2-3)Gal(b1-4)GlcNAc6S
# Procedure, shortened: as §1
# [6] = target: Neu5Ac(a2-3)Gal(b1-4)[Fuc(a1-3)]GlcNAc
# Procedure, shortened: as §1
# [7] = target: Neu5Ac(a2-3)Gal(b1-4)[Fuc(a1-3)]GlcNAc(b1-2)Man
# Procedure, shortened: as §1
# [8] = target: Neu5Ac(a2-3)Gal(b1-4)[Fuc(a1-3)]GlcNAc(b1-3)Gal
# Procedure, shortened: as §1
# [9] = target: Neu5Ac(a2-3)Gal(b1-4)[Fuc(a1-3)]GlcNAc(b1-3)Gal(b1-4)GlcNAc
# Procedure, shortened: as §1
# [10] = target: Neu5Ac(a2-3)Gal(b1-4)[Fuc(a1-3)]GlcNAc(b1-3)Gal(b1-4)[Fuc(a1-3)]GlcNAc(b1-3)Gal(b1-4)[Fuc(a1-3)]GlcNAc
# Procedure, shortened: as §1
# [11] = target: Neu5Ac(a2-3)Gal(b1-4)[Fuc(a1-3)]GlcNAc(b1-3)GalNAc
# Procedure, shortened: as §1
# [12] = target: Neu5Ac(a2-3)Gal(b1-4)[Fuc(a1-3)]GlcNAc(b1-6)[Gal(b1-3)]GalNAc
# Procedure, shortened: as §1
# [13] = target: Neu5Ac(a2-3)Gal(b1-4)[Fuc(a1-3)]GlcNAc(b1-6)[Neu5Ac(a2-3)Gal(b1-3)]GalNAc
# Procedure, shortened: as §1
# [14] = target: Neu5Ac(a2-3)Gal(b1-4)[Fuc(a1-3)]GlcNAc6S
# Procedure, shortened: as §1
# [15] = target: Neu5Ac(a2-3)Gal6S(b1-4)GlcNAc
# Procedure, shortened: as §1
# [16] = target: Neu5Ac(a2-3)Gal6S(b1-4)[Fuc(a1-3)]GlcNAc
# Procedure, shortened: as §1
# Neu5Ac(a2-3)GalNAc = target: Neu5Ac(a2-3)GalNAc
# Procedure, shortened: as §1
# [17] = target: Neu5Ac(a2-3)GalNAc(b1-4)GlcNAc
# Procedure, shortened: as §1
# [18] = target: Neu5Ac(a2-3)[GalNAc(b1-4)]Gal(b1-4)Glc
# Procedure, shortened: as §1
# [19] = target: Neu5Ac(a2-3)[GalNAc(b1-4)]Gal(b1-4)GlcNAc
# Procedure, shortened: as §1
# [20] = target: Neu5Ac(a2-3)[GalNAc(b1-4)]Gal(b1-4)GlcNAc(b1-3)GalNAc
# Procedure, shortened: as §1
# [21] = target: Neu5Ac(a2-3)[Neu5Ac(a2-6)]GalNAc
# Procedure, shortened: as §1
# Neu5Ac(a2-6)Gal = target: Neu5Ac(a2-6)Gal
# Procedure, shortened: as §1
# [22] = target: Neu5Ac(a2-6)Gal(b1-3)GlcNAc(b1-3)[Gal(b1-4)GlcNAc(b1-6)]Gal(b1-4)Glc
# Procedure, shortened: as §1
# Neu5Ac(a2-6)Gal(b1-4)Glc = target: Neu5Ac(a2-6)Gal(b1-4)Glc
# Procedure, shortened: as §1
# [23] = target: Neu5Ac(a2-6)Gal(b1-4)GlcNAc
# Procedure, shortened: as §1
# [24] = target: Neu5Ac(a2-6)Gal(b1-4)GlcNAc(b1-2)Man
# Procedure, shortened: as §1
# [25] = target: Neu5Ac(a2-6)Gal(b1-4)GlcNAc(b1-2)Man(a1-3)Man(b1-4)GlcNAc(b1-4)GlcNAc
# Procedure, shortened: as §1
# [26] = target: Neu5Ac(a2-6)Gal(b1-4)GlcNAc(b1-2)Man(a1-3)[Gal(b1-4)GlcNAc(b1-2)Man(a1-6)]Man(b1-4)GlcNAc(b1-4)GlcNAc
# Procedure, shortened: as §1
# [27] = target: Neu5Ac(a2-6)Gal(b1-4)GlcNAc(b1-2)Man(a1-3)[GlcNAc(b1-2)Man(a1-6)]Man(b1-4)GlcNAc(b1-4)GlcNAc
# Procedure, shortened: as §1
# [28] = target: Neu5Ac(a2-6)Gal(b1-4)GlcNAc(b1-2)Man(a1-3)[GlcNAc(b1-4)][Neu5Ac(a2-6)Gal(b1-4)GlcNAc(b1-2)Man(a1-6)]Man(b1-4)GlcNAc(b1-4)GlcNAc
# Procedure, shortened: as §1
# [29] = target: Neu5Ac(a2-6)Gal(b1-4)GlcNAc(b1-2)Man(a1-3)[Man(a1-6)]Man(b1-4)GlcNAc(b1-4)GlcNAc
# Procedure, shortened: as §1
# [30] = target: Neu5Ac(a2-6)Gal(b1-4)GlcNAc(b1-2)Man(a1-3)[Neu5Ac(a2-3)Gal(b1-4)GlcNAc(b1-2)Man(a1-6)]Man(b1-4)GlcNAc(b1-4)GlcNAc
# Procedure, shortened: as §1
# [31] = target: Neu5Ac(a2-6)Gal(b1-4)GlcNAc(b1-2)Man(a1-3)[Neu5Ac(a2-6)Gal(b1-4)GlcNAc(b1-2)Man(a1-6)]Man(b1-4)GlcNAc(b1-4)GlcNAc
# Procedure, shortened: as §1
# [32] = target: Neu5Ac(a2-6)Gal(b1-4)GlcNAc(b1-2)Man(a1-3)[Neu5Ac(a2-6)Gal(b1-4)GlcNAc(b1-2)Man(a1-6)]Man(b1-4)GlcNAc(b1-4)[Fuc(a1-6)]GlcNAc
# Procedure, shortened: as §1
# [33] = target: Neu5Ac(a2-6)Gal(b1-4)GlcNAc(b1-2)Man(a1-6)Man(b1-4)GlcNAc(b1-4)GlcNAc
# Procedure, shortened: as §1
# [34] = target: Neu5Ac(a2-6)Gal(b1-4)GlcNAc(b1-2)Man(a1-6)[Gal(b1-4)GlcNAc(b1-2)Man(a1-3)]Man(b1-4)GlcNAc(b1-4)GlcNAc
# Procedure, shortened: as §1
# [35] = target: Neu5Ac(a2-6)Gal(b1-4)GlcNAc(b1-2)Man(a1-6)[GlcNAc(b1-2)Man(a1-3)]Man(b1-4)GlcNAc(b1-4)GlcNAc
# Procedure, shortened: as §1
# [36] = target: Neu5Ac(a2-6)Gal(b1-4)GlcNAc(b1-2)Man(a1-6)[Man(a1-3)]Man(b1-4)GlcNAc(b1-4)GlcNAc
# Procedure, shortened: as §1
# [37] = target: Neu5Ac(a2-6)Gal(b1-4)GlcNAc(b1-2)[Neu5Ac(a2-6)Gal(b1-4)GlcNAc(b1-4)]Man(a1-3)[GlcNAc(b1-4)][Neu5Ac(a2-6)Gal(b1-4)GlcNAc(b1-2)[Neu5Ac(a2-6)Gal(b1-4)GlcNAc(b1-6)]Man(a1-6)]Man(b1-4)GlcNAc(b1-4)GlcNAc
# Procedure, shortened: as §1
# [38] = target: Neu5Ac(a2-6)Gal(b1-4)GlcNAc(b1-2)[Neu5Ac(a2-6)Gal(b1-4)GlcNAc(b1-4)]Man(a1-3)[GlcNAc(b1-4)][Neu5Ac(a2-6)Gal(b1-4)GlcNAc(b1-4)Man(a1-6)]Man(b1-4)GlcNAc(b1-4)GlcNAc
# Procedure, shortened: as §1
# [39] = target: Neu5Ac(a2-6)Gal(b1-4)GlcNAc(b1-2)[Neu5Ac(a2-6)Gal(b1-4)GlcNAc(b1-6)]Man(a1-6)[Neu5Ac(a2-6)Gal(b1-4)GlcNAc(b1-2)Man(a1-3)][GlcNAc(b1-4)]Man(b1-4)GlcNAc(b1-4)GlcNAc
# Procedure, shortened: as §1
# [40] = target: Neu5Ac(a2-6)Gal(b1-4)GlcNAc(b1-3)Gal(b1-3)GlcNAc
# Procedure, shortened: as §1
# [41] = target: Neu5Ac(a2-6)Gal(b1-4)GlcNAc(b1-3)Gal(b1-4)GlcNAc
# Procedure, shortened: as §1
# [42] = target: Neu5Ac(a2-6)Gal(b1-4)GlcNAc(b1-3)Gal(b1-4)GlcNAc(b1-2)Man(a1-3)[Neu5Ac(a2-6)Gal(b1-4)GlcNAc(b1-3)Gal(b1-4)GlcNAc(b1-2)Man(a1-6)]GalNAc
# Procedure, shortened: as §1
binder,measurement,setting,value
"CFEM-PPl (Pichia pastoris), F2QPV1 (protein) AVATPPACLLACAAEVVKESSDCDALNNIQCICENEGSAIHACLESTCPDGLSSTALQSFEDVCESVGTEANLDE",glycan array binding signal (z-score),[1],-0.263
same,glycan array binding signal (z-score),[2],-0.275
same,glycan array binding signal (z-score),[3],0.767
same,glycan array binding signal (z-score),[4],-0.19
same,glycan array binding signal (z-score),[5],-0.185
same,glycan array binding signal (z-score),[6],-0.298
same,glycan array binding signal (z-score),[7],-0.109
same,glycan array binding signal (z-score),[8],-0.063
same,glycan array binding signal (z-score),[9],0.019
same,glycan array binding signal (z-score),[10],-0.258
same,glycan array binding signal (z-score),[11],0.545
same,glycan array binding signal (z-score),[12],0.49
same,glycan array binding signal (z-score),[13],0.105
same,glycan array binding signal (z-score),[14],-0.175
same,glycan array binding signal (z-score),[15],-0.298
same,glycan array binding signal (z-score),[16],-0.236
same,glycan array binding signal (z-score),Neu5Ac(a2-3)GalNAc,-0.09
same,glycan array binding signal (z-score),[17],-0.332
same,glycan array binding signal (z-score),[18],-0.139
same,glycan array binding signal (z-score),[19],-0.174
same,glycan array binding signal (z-score),[20],-0.168
same,glycan array binding signal (z-score),[21],-0.342
same,glycan array binding signal (z-score),Neu5Ac(a2-6)Gal,-0.187
same,glycan array binding signal (z-score),[22],-0.145
same,glycan array binding signal (z-score),Neu5Ac(a2-6)Gal(b1-4)Glc,-0.155
same,glycan array binding signal (z-score),[23],-0.156
same,glycan array binding signal (z-score),[24],-0.306
same,glycan array binding signal (z-score),[25],-0.228
same,glycan array binding signal (z-score),[26],-0.338
same,glycan array binding signal (z-score),[27],-0.238
same,glycan array binding signal (z-score),[28],-0.317
same,glycan array binding signal (z-score),[29],-0.221
same,glycan array binding signal (z-score),[30],-0.342
same,glycan array binding signal (z-score),[31],-0.154
same,glycan array binding signal (z-score),[32],-0.212
same,glycan array binding signal (z-score),[33],-0.164
same,glycan array binding signal (z-score),[34],-0.173
same,glycan array binding signal (z-score),[35],-0.196
same,glycan array binding signal (z-score),[36],-0.165
same,glycan array binding signal (z-score),[37],-0.31
same,glycan array binding signal (z-score),[38],-0.281
same,glycan array binding signal (z-score),[39],-0.236
same,glycan array binding signal (z-score),[40],-0.315
same,glycan array binding signal (z-score),[41],-0.404
same,glycan array binding signal (z-score),[42],-0.318
